The other results are listed elsewhere or left out. Values were computed here from the reads of four pooled replicates and scatter widely.
Each sequence was assayed against T1, Pho4 (S. cerevisiae) (UniProt P07270) (assay: relative binding free energy (BET-seq); higher = weaker binding). Conditions: reference: library average.
T1 sequence: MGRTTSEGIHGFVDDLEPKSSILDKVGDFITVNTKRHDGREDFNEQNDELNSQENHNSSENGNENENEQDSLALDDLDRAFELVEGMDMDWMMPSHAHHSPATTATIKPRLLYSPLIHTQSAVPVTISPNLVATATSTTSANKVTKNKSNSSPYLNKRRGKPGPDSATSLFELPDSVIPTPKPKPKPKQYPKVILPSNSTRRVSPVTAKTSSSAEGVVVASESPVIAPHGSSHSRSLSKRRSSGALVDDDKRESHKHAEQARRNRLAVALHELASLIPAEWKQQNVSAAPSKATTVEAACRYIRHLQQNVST

| Sequence | relative binding free energy [kJ/mol] |
| --- | --- |
| GTGGGCACGTGGGAGT | -0.753 |
| GTTTACACGTGCGCTG | 0.377 |
| GGGAACACGTGAGTGA | 1.13 |
| TCTTACACGTGTTTAG | 0.209 |
| GATGGCACGTGGTACG | -0.628 |
| TCAGGCACGTGGCGGT | -0.92 |
| AGTTCCACGTGGAAGG | 0.962 |
| GGAGGCACGTGTAGCG | -0.753 |
| TTGGGCACGTGAGAGC | 0.628 |
| ATTTTCACGTGATTTC | 1.97 |
| TGTTTCACGTGAGAGT | 2.09 |
| GTGTCCACGTGTTTTA | -0.0418 |
| TCTACCACGTGTTTGT | 0.335 |
| TGGGACACGTGAGGTT | 1.51 |
| ATTTGCACGTGTCGGA | 0.335 |
| GTAAGCACGTGTCCGG | -0.167 |
| CTTTGCACGTGAAGTT | 0.753 |
| TTGTTCACGTGAGTTC | 1.46 |
| AAATGCACGTGGTGTT | -0.669 |
| GAGCACACGTGTGTTT | 1.55 |
| ATTAGCACGTGGGCTA | -1.17 |
| GAGGACACGTGTCGGG | 0.879 |
| TATTACACGTGCGTAT | 0.46 |
| CGGACCACGTGTGGGG | -0.46 |
| TATTTCACGTGGAAAG | 0.711 |

| Sequence | relative binding free energy [kJ/mol] |
| --- | --- |
| GCGTGCACGTGTCTGG | -0.126 |
| TATGTCACGTGTATGA | 0.335 |
| ATTGTCACGTGAGACT | 1.42 |
| GGGCCCACGTGGAGGG | -0.669 |
| GGCTGCACGTGTTATG | 0.209 |
| TAGATCACGTGGGTGG | 0.0418 |
| TAGTACACGTGTGAGT | 0.502 |
| GTTTCCACGTGTGTGC | 1.09 |
| GGACTCACGTGTATAT | 1.17 |
| CGCATCACGTGGGTGG | -0.167 |
| GGTGTCACGTGGCTGA | 0 |
| AGAGGCACGTGCGGCG | -0.879 |
| CGGGTCACGTGTGTTA | 0.46 |
| GAATGCACGTGGTTCT | 0.46 |
| GTTGGCACGTGTGTCA | 0.0418 |
| GTAAGCACGTGGTGTT | -0.418 |
| TATTACACGTGAAAGG | 1.21 |
| CTTGACACGTGGGAGT | -0.293 |
| TGCTACACGTGGAGGG | 0.335 |
| CTTGGCACGTGGTTCG | 0 |
| TGGTTCACGTGATTCT | 0.586 |
| TGCTTCACGTGCTTTG | 1.09 |
| AAGAGCACGTGGGTGT | -1 |
| ATGGACACGTGGCGTA | -0.669 |
| TTGGGCACGTGCGAAT | -0.795 |

| Sequence | relative binding free energy [kJ/mol] |
| --- | --- |
| TACCGCACGTGTGGGT | -0.0837 |
| TTTTTCACGTGATCAG | 1.05 |
| TAGTACACGTGAGGCG | 1 |
| TTATTCACGTGGTGAT | 0.962 |
| GTTGTCACGTGGAGTT | 0.962 |
| ATTGGCACGTGGCGGT | -0.753 |
| TTTTGCACGTGGCAGA | -0.126 |
| GAGCTCACGTGGGGGA | 0.711 |
| ATGCACACGTGTTTGT | -0.251 |
| TTTATCACGTGTTGAA | 0.46 |
| TAAGGCACGTGGTAGT | -1.26 |
| GTCGTCACGTGTAGGC | 0.46 |
| TTTTGCACGTGAAGTC | 1.21 |
| GTTATCACGTGCCTTT | 0.711 |
| TATTTCACGTGAATGA | 1.67 |
| GTAGACACGTGGGTTG | -0.795 |
| TTTAACACGTGGGAGC | -0.126 |
| GAGTACACGTGGCTGG | 0.502 |
| AAGGACACGTGAGATT | 1.51 |
| CGGTGCACGTGATGCG | 0.126 |
| GAGTGCACGTGGGAGC | -0.126 |
| TGCTTCACGTGGTGTA | 0.251 |
| GGAGTCACGTGAGAAG | 1.63 |

— the BET-seq Pho4 binding data (Le et al. 2018)
